# According to the supplement of paper PMC8728848:
# This is one part of the list.
# B1: HBHA-Rv (Mycobacterium tuberculosum), P0A5P6 (protein)
# chain: MAENSNIDDIKAPLLAALGAADLALATVNELITNLRERAEETRTDTRSRVEESRARLTKLQEDLPEQLTELREKFTAEELRKAAEGYLEAATSRYNELVERGEAALERLRSQQSFEEVSARAEGYVDQAVELTQEALGTVASQTRAVGERAAKLVGIELPKKAAPAKKAAPAKKAAPAKKAAAKKAPAKKAAAKKVTQK
# What was measured:
# Assay in all cases: glycan array binding signal (z-score within array); higher = stronger binding
# Conditions in all cases: glycan notation: IUPAC condensed, linker removed
# [1] = target: Neu5Ac(a2-6)Gal(b1-4)GlcNAc(b1-2)Man(a1-3)[GlcNAc(b1-4)][Neu5Ac(a2-6)Gal(b1-4)GlcNAc(b1-2)Man(a1-6)]Man(b1-4)GlcNAc(b1-4)GlcNAc
# Method in brief: (§1)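 The binding signal is a Z-score computed within each array. Data were drawn from 3228 arrays in the Consortium for Functional Glycomics database, restricted to those with a known protein sequence. Scores were averaged over arrays of the same protein sequence at different concentrations or buffers, and over linkers, and negative values can be taken as non-binding.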
# [2] = target: Neu5Ac(a2-6)Gal(b1-4)GlcNAc(b1-2)Man(a1-3)[Man(a1-6)]Man(b1-4)GlcNAc(b1-4)GlcNAc
# Method in brief: as §1
# [3] = target: Neu5Ac(a2-6)Gal(b1-4)GlcNAc(b1-2)Man(a1-3)[Neu5Ac(a2-3)Gal(b1-4)GlcNAc(b1-2)Man(a1-6)]Man(b1-4)GlcNAc(b1-4)GlcNAc
# Method in brief: as §1
# [4] = target: Neu5Ac(a2-6)Gal(b1-4)GlcNAc(b1-2)Man(a1-3)[Neu5Ac(a2-6)Gal(b1-4)GlcNAc(b1-2)Man(a1-6)]Man(b1-4)GlcNAc(b1-4)GlcNAc
# Method in brief: as §1
# [5] = target: Neu5Ac(a2-6)Gal(b1-4)GlcNAc(b1-2)Man(a1-3)[Neu5Ac(a2-6)Gal(b1-4)GlcNAc(b1-2)Man(a1-6)]Man(b1-4)GlcNAc(b1-4)[Fuc(a1-6)]GlcNAc
# Method in brief: as §1
# [6] = target: Neu5Ac(a2-6)Gal(b1-4)GlcNAc(b1-2)Man(a1-6)Man(b1-4)GlcNAc(b1-4)GlcNAc
# Method in brief: as §1
# [7] = target: Neu5Ac(a2-6)Gal(b1-4)GlcNAc(b1-2)Man(a1-6)[Gal(b1-4)GlcNAc(b1-2)Man(a1-3)]Man(b1-4)GlcNAc(b1-4)GlcNAc
# Method in brief: as §1
# [8] = target: Neu5Ac(a2-6)Gal(b1-4)GlcNAc(b1-2)Man(a1-6)[GlcNAc(b1-2)Man(a1-3)]Man(b1-4)GlcNAc(b1-4)GlcNAc
# Method in brief: as §1
# [9] = target: Neu5Ac(a2-6)Gal(b1-4)GlcNAc(b1-2)Man(a1-6)[Man(a1-3)]Man(b1-4)GlcNAc(b1-4)GlcNAc
# Method in brief: as §1
# [10] = target: Neu5Ac(a2-6)Gal(b1-4)GlcNAc(b1-2)[Neu5Ac(a2-6)Gal(b1-4)GlcNAc(b1-4)]Man(a1-3)[GlcNAc(b1-4)][Neu5Ac(a2-6)Gal(b1-4)GlcNAc(b1-2)[Neu5Ac(a2-6)Gal(b1-4)GlcNAc(b1-6)]Man(a1-6)]Man(b1-4)GlcNAc(b1-4)GlcNAc
# Method in brief: as §1
# [11] = target: Neu5Ac(a2-6)Gal(b1-4)GlcNAc(b1-2)[Neu5Ac(a2-6)Gal(b1-4)GlcNAc(b1-4)]Man(a1-3)[GlcNAc(b1-4)][Neu5Ac(a2-6)Gal(b1-4)GlcNAc(b1-4)Man(a1-6)]Man(b1-4)GlcNAc(b1-4)GlcNAc
# Method in brief: as §1
# [12] = target: Neu5Ac(a2-6)Gal(b1-4)GlcNAc(b1-2)[Neu5Ac(a2-6)Gal(b1-4)GlcNAc(b1-6)]Man(a1-6)[Neu5Ac(a2-6)Gal(b1-4)GlcNAc(b1-2)Man(a1-3)][GlcNAc(b1-4)]Man(b1-4)GlcNAc(b1-4)GlcNAc
# Method in brief: as §1
# [13] = target: Neu5Ac(a2-6)Gal(b1-4)GlcNAc(b1-3)Gal(b1-3)GlcNAc
# Method in brief: as §1
# [14] = target: Neu5Ac(a2-6)Gal(b1-4)GlcNAc(b1-3)Gal(b1-4)GlcNAc
# Method in brief: as §1
# [15] = target: Neu5Ac(a2-6)Gal(b1-4)GlcNAc(b1-3)Gal(b1-4)GlcNAc(b1-2)Man(a1-3)[Neu5Ac(a2-6)Gal(b1-4)GlcNAc(b1-3)Gal(b1-4)GlcNAc(b1-2)Man(a1-6)]GalNAc
# Method in brief: as §1
# [16] = target: Neu5Ac(a2-6)Gal(b1-4)GlcNAc(b1-3)Gal(b1-4)GlcNAc(b1-3)Gal(b1-4)GlcNAc
# Method in brief: as §1
# [17] = target: Neu5Ac(a2-6)Gal(b1-4)GlcNAc(b1-3)Gal(b1-4)GlcNAc(b1-3)Gal(b1-4)GlcNAc(b1-2)Man(a1-3)[Neu5Ac(a2-6)Gal(b1-4)GlcNAc(b1-3)Gal(b1-4)GlcNAc(b1-3)Gal(b1-4)GlcNAc(b1-2)Man(a1-6)]GalNAc
# Method in brief: as §1
# [18] = target: Neu5Ac(a2-6)Gal(b1-4)GlcNAc(b1-3)Gal(b1-4)GlcNAc(b1-3)GalNAc
# Method in brief: as §1
# [19] = target: Neu5Ac(a2-6)Gal(b1-4)GlcNAc(b1-3)Gal(b1-4)GlcNAc(b1-3)[Neu5Ac(a2-6)Gal(b1-4)GlcNAc(b1-3)Gal(b1-4)GlcNAc(b1-6)]GalNAc
# Method in brief: as §1
# [20] = target: Neu5Ac(a2-6)Gal(b1-4)GlcNAc(b1-3)Gal(b1-4)GlcNAc(b1-6)[Gal(b1-3)]GalNAc
# Method in brief: as §1
# [21] = target: Neu5Ac(a2-6)Gal(b1-4)GlcNAc(b1-3)Gal(b1-4)[Fuc(a1-3)]GlcNAc(b1-3)Gal(b1-4)[Fuc(a1-3)]GlcNAc
# Method in brief: as §1
# [22] = target: Neu5Ac(a2-6)Gal(b1-4)GlcNAc(b1-3)GalNAc
# Method in brief: as §1
# [23] = target: Neu5Ac(a2-6)Gal(b1-4)GlcNAc(b1-3)[Neu5Ac(a2-6)Gal(b1-4)GlcNAc(b1-6)]GalNAc
# Method in brief: as §1
# [24] = target: Neu5Ac(a2-6)Gal(b1-4)GlcNAc(b1-6)GalNAc
# Method in brief: as §1
# [25] = target: Neu5Ac(a2-6)Gal(b1-4)GlcNAc(b1-6)[Gal(b1-3)GlcNAc(b1-3)]Gal(b1-4)Glc
# Method in brief: as §1
# [26] = target: Neu5Ac(a2-6)Gal(b1-4)GlcNAc(b1-6)[Gal(b1-3)]GalNAc
# Method in brief: as §1
# [27] = target: Neu5Ac(a2-6)Gal(b1-4)GlcNAc6S
# Method in brief: as §1
# Neu5Ac(a2-6)GalNAc = target: Neu5Ac(a2-6)GalNAc
# Method in brief: as §1
# [28] = target: Neu5Ac(a2-6)GalNAc(b1-4)GlcNAc
# Method in brief: as §1
# [29] = target: Neu5Ac(a2-6)GalNAc(b1-4)GlcNAc6S
# Method in brief: as §1
# [30] = target: Neu5Ac(a2-6)GlcNAc(b1-4)GlcNAc
# Method in brief: as §1
binder,measurement,setting,value
B1,glycan array binding signal (z-score),[1],-0.404
same,glycan array binding signal (z-score),[2],-0.404
same,glycan array binding signal (z-score),[3],-0.42
same,glycan array binding signal (z-score),[4],-0.129
same,glycan array binding signal (z-score),[5],-0.469
same,glycan array binding signal (z-score),[6],-0.404
same,glycan array binding signal (z-score),[7],-0.392
same,glycan array binding signal (z-score),[8],-0.465
same,glycan array binding signal (z-score),[9],-0.302
same,glycan array binding signal (z-score),[10],-0.416
same,glycan array binding signal (z-score),[11],-0.077
same,glycan array binding signal (z-score),[12],-0.441
same,glycan array binding signal (z-score),[13],-0.037
same,glycan array binding signal (z-score),[14],-0.321
same,glycan array binding signal (z-score),[15],-0.407
same,glycan array binding signal (z-score),[16],-0.395
same,glycan array binding signal (z-score),[17],-0.089
same,glycan array binding signal (z-score),[18],-0.379
same,glycan array binding signal (z-score),[19],-0.41
same,glycan array binding signal (z-score),[20],-0.403
same,glycan array binding signal (z-score),[21],-0.145
same,glycan array binding signal (z-score),[22],-0.032
same,glycan array binding signal (z-score),[23],-0.388
same,glycan array binding signal (z-score),[24],-0.187
same,glycan array binding signal (z-score),[25],-0.2
same,glycan array binding signal (z-score),[26],-0.461
same,glycan array binding signal (z-score),[27],0.145
same,glycan array binding signal (z-score),Neu5Ac(a2-6)GalNAc,0.287
same,glycan array binding signal (z-score),[28],-0.342
same,glycan array binding signal (z-score),[29],0.057
same,glycan array binding signal (z-score),[30],-0.401
